“And” between values parts separate entries of the source, which are not always exact repeats. Equal entries are not always repeated. Hit rate of the full screen: of about 220,000 compounds, about 5,700 (2.6%) were called active. Inconclusive results, whose numbers are uncertain, are shown with a selection of clear calls. The call rests on the fitted dose curve; in most records, active means well fitted inhibition curve with a large enough effect; inconclusive means small, poorly fitted or top-dose-only effect; inactive means no such curve, though single readings can be large or run the other way. Potencies of inconclusive entries are doubtful fits and often do not repeat.
These compounds were tested against Lysine-specific demethylase 5B (Homo sapiens) (UniProt Q9UGL1) (assay: Primary screen for KDM5B Histone Demethylases FDH-coupled qHTS). Conditions: FDH-coupled NADH fluorescence (FDH is formaldehyde dehydrogenase); activity change, negative = inhibition: at 57.7 µM (top of the series) unless noted.
Outline: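 Coupled FDH/NAD⁺ fluorescence readout. KDM5BΔAP 200 nM final; compound titration, 10 min RT preincubation; substrate mix 12.5 µM H3K4me3, 25 µM 2-OG, 50 µM Fe(II), 100 µM ascorbate, 0.25 mM NAD⁺, 0.25 U/mL FDH; ΔRFU over 30 min.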
Further: nearly all actives have a fitted effect of over 70% in size.
Potency means the concentration at half of the fitted maximal effect; tags describe the fitted curve by direction and shape.
Wherever activity change, negative = inhibition is given: 0% is about no effect.

Sequence of UniProt Q9UGL1 (Q9UGL1 whole entry, looked up): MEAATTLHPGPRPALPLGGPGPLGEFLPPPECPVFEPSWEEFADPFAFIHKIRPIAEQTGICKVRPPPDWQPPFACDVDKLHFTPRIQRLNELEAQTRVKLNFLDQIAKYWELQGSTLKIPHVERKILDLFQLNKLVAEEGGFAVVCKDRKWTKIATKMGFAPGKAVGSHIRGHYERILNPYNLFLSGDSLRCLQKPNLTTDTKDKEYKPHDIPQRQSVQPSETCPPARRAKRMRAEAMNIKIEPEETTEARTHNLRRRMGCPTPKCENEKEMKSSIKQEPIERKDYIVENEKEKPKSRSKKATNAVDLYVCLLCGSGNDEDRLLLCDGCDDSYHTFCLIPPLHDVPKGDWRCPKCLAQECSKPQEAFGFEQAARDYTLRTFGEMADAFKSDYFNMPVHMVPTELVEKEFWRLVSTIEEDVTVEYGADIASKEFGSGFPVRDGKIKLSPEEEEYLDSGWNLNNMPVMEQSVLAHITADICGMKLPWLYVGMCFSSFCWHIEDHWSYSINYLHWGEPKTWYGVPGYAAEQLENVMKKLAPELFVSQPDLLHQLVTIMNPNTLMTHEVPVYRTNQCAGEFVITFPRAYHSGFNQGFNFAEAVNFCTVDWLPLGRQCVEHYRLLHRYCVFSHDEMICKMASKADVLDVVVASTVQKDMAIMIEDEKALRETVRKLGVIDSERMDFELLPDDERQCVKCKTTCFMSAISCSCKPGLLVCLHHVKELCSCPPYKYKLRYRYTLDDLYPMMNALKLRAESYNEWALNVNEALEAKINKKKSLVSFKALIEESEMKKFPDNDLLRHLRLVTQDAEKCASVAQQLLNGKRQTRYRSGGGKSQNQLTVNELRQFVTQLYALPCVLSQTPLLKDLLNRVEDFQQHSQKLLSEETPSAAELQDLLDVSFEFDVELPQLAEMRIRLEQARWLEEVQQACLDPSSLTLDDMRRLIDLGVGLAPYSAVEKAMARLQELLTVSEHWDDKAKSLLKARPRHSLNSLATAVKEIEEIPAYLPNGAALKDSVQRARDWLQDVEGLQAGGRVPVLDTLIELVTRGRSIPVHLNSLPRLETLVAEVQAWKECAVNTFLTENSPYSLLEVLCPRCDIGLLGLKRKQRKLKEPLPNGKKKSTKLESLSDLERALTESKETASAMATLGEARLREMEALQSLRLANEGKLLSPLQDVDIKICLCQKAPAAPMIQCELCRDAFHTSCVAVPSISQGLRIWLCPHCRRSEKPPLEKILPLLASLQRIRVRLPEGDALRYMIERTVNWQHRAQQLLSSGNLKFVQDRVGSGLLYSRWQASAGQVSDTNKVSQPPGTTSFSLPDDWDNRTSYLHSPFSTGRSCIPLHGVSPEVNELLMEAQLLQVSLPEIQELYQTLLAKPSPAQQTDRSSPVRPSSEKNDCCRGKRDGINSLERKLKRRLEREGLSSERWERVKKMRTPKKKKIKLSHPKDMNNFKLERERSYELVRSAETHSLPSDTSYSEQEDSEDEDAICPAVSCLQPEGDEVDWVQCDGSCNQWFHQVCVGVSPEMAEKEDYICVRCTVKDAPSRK

SMILES	Potency	activity change, negative = inhibition
CCOC(=O)C1CCN(C(=O)COC(=O)c2cc3c(C)cc(C)cc3[nH]2)CC1	inconclusive: 10 µM [inhibitor, partial curve, poor fit]	
O=C(NC1CCN(c2cc(-c3ccc(Cl)cc3)[nH]n2)C1)c1ccc2c(c1)OCO2 (centres undefined)	inconclusive: 8.91 µM [inhibitor, partial curve]	
O=C(Nc1ccc2nn(-c3ccccc3)nc2c1)c1ccc(-c2cccc(Cl)c2)o1	inconclusive: 25.1 µM [inhibitor, partial curve, poor fit]	
COc1cccc(-c2cc(C(=O)Nc3cc(OC)ccc3OC)[nH]n2)c1	inactive	
CCOC(=O)c1cc2c(C)cc(C)cc2[nH]1	inconclusive: 17.8 µM [inhibitor, partial curve, poor fit]	
COCC(=O)N1CCc2cn(C)c3cccc(c23)C1	inconclusive: 31.6 µM [inhibitor, partial curve, poor fit]	
CC(Sc1c(Cl)cccc1Cl)C(=O)NC(N)=O (centres undefined)	inactive	
CC1(CNc2ccccc2)COc2ccc(C(=O)NC3CCOCC3)cc2N1 (centres undefined)	inconclusive: 25.1 µM [inhibitor, partial curve, poor fit]	
COc1ccc(CCNC(=O)CCS(=O)(=O)c2ccc3c(c2)oc(=O)n3C)cc1OC		inconclusive: -157% [inhibitor] [at 11.5 µM]
Cn1cccc1C(=O)N1CCc2nn(Cc3ccccc3)c(=O)n2CC1	inactive	
O=C(C1CCC1)N1CCCC(n2cc(-c3nc(-c4ccccc4)no3)nn2)C1 (centres undefined)	inactive	
Cc1ccc(O[C@H]2COCC[C@H]2NC(=O)CCc2nc3ccccc3[nH]2)cn1	inactive	
COc1cccc(CNC(=O)Cn2ccn3nc4c(c3c2=O)CCCC4)c1	active: 25.1 µM	
CCOC(=O)c1c(C)[nH]c(CCC(=O)Nc2ccccc2C(=O)OC)c1C	inconclusive: 28.2 µM [inhibitor, partial curve, poor fit]	
Cn1cccc1CN1CCCC12Cc1ccccc1CNC2=O (centres undefined)	inconclusive: 79.4 µM [inhibitor, partial curve]	
CCn1c(=O)n(CC)c2cc(N3CCCCC3)c(NC(=O)Nc3cc(Cl)ccc3OC)cc21	inconclusive: 15.8 µM [inhibitor, partial curve, poor fit]	
N#Cc1cccnc1N1CCCC(CO)(Cc2ccc(F)cc2F)C1 (centres undefined)	inconclusive: 25.1 µM [inhibitor, partial curve, poor fit]	
O=C(O)COCC(=O)N[C@H]1CCN2C(=O)c3cc(-c4ccccc4F)ccc3NC(=O)[C@H]12	inactive	
COc1ccc(-n2c(-c3ccco3)nc3c(cnn3-c3ccc(C)cc3)c2=O)cc1	inconclusive: 39.8 µM [inhibitor, single point] and inconclusive: 25.1 µM [inhibitor, single point]	
Cc1ccc(Nc2nc(CN3CCN(S(=O)(=O)c4ccc(F)c(F)c4)CC3)cs2)cc1	inconclusive: 20 µM [inhibitor, partial curve, poor fit]	
CN(C)C(=O)CNS(=O)(=O)c1ccc(F)c(Cl)c1	inactive	
Cc1ccc(C(=O)N2CCc3onc(-c4cccc5ccccc45)c3C2)cc1	inconclusive: 14.1 µM [inhibitor, partial curve]	

SMILES	Potency	activity change, negative = inhibition
COc1ccccc1NC(=O)CC1Nc2ccccc2NC1=O (centres undefined)	inconclusive: 28.2 µM [inhibitor, partial curve, poor fit]	
O=C(CCC[C@@H]1[C@H]2CCCN3CCC[C@@H](CN1Cc1ccccc1)[C@@H]23)NCCCn1cccn1	active: 22.4 µM	
COc1ccccc1N1CCN([C@@H]2[C@H](O)[C@H](CO)O[C@@H]2CNC(=O)Nc2ccc(F)cc2F)CC1	inconclusive: 25.1 µM [inhibitor, partial curve, poor fit]	
CCN(CCCNC(=O)c1cc2cc3ccc(OC)cc3nc2s1)c1ccccc1		inconclusive: -33.2% [inhibitor]
O=c1nc(-c2ccccc2Cl)c2cc(F)ccc2[nH]1	inconclusive: 22.4 µM [inhibitor, partial curve, poor fit]	
CNC(=O)c1c(NC(=O)c2cccc(C)c2)sc2c1CCC2	inconclusive: 31.6 µM [inhibitor, partial curve, poor fit]	
COc1cccc(Nc2nc(-c3ccccc3)c3cc(C)ccc3n2)c1	inconclusive: 31.6 µM [inhibitor, partial curve, poor fit]	
N#Cc1cccc(CN2CCc3nc(C(=O)NCC4CC4)oc3CC2)c1	inconclusive: 25.1 µM [inhibitor, single point]	
Cc1ccccc1C(=O)N(C)[C@H]1C[C@H]2c3[nH]c4c(-c5ccc6c(c5)OCO6)cccc4c3CCN2C[C@H]1[C@H](C)O	inconclusive: 11.2 µM [inhibitor, partial curve, poor fit]	
CCCn1nc(C(=O)Nc2ccc(C(C)(C)C)cc2)c2ccccc2c1=O	inactive	
c1ccc2c(-c3nc4ccncc4[nH]3)c[nH]c2c1	inconclusive: 141 µM [inhibitor, partial curve, poor fit] and active: 39.8 µM	
COc1ccc2cc(CNC(=O)CNC(=O)c3ccc(C(F)(F)F)cc3)ccc2c1	inactive	
Cc1ccc(Cl)cc1N1CCN(C(=O)c2ccc(C)c(-n3c(C)nc4cccnc43)c2)CC1	inconclusive: 6.31 µM [inhibitor, partial curve, poor fit]	
COc1ccc(C)cc1-n1nnnc1SCc1nc(CC(C)C)no1	inactive	
Cc1cccc(S(=O)(=O)c2cn(Cc3ccccc3)c3cc(N4CCCCC4C)c(F)cc3c2=O)c1 (centres undefined)	inconclusive: 25.1 µM [inhibitor, partial curve, poor fit]	
CCN(CC)CCn1c(SCC(=O)Nc2cccc(OC)c2)nc2c(sc3ccccc32)c1=O	inconclusive: 35.5 µM [inhibitor, single point]	
O=C(COc1ccccc1)NC1CCN(c2cc(-c3ccccc3)[nH]n2)CC1	inconclusive: 31.6 µM [inhibitor, single point]	
COc1cccc(NC(=O)/C(C#N)=C\c2cn(Cc3ccc(Cl)cc3)c3ccccc23)c1	inconclusive: 31.6 µM [inhibitor, single point]	
Cc1ccc(SCCNC(=O)CC2C=CCC2)cc1C (centres undefined)	inactive	
CC(C)CN1CCN(C(=O)C2CCCN(S(=O)(=O)c3ccccc3)CCC(=O)NCC2)CC1 (centres undefined)	inconclusive: 11.2 µM [inhibitor, partial curve, poor fit]	
O=C1CCN(C(=O)C2CCN(C(=O)c3ccoc3)CC2)CCCCCCN1	inactive	
O=C(Nc1ccc(-c2noc(/C=C/c3ccccc3)n2)cc1)c1ccc(Br)o1	inactive	

SMILES	Potency	activity change, negative = inhibition
CCc1ccc(-c2nn(CC(=O)NC3CCCCC3)c3c2cnc2ccc(OC)cc23)cc1	inconclusive: 35.5 µM [inhibitor, single point]	
CC[C@@]1(C(=O)O)C[C@H](C(=O)NCCCO)[C@H](c2ccc(OC)cc2)N1C	inconclusive: 20 µM [inhibitor, partial curve, poor fit]	
COc1ccc(C(Nc2cc(C)ccn2)c2ccc3ccc(C)nc3c2O)cc1 (centres undefined)	inconclusive: 28.2 µM [inhibitor, single point]	
COc1ccc(Nc2nc3cc(C)ccc3nc2NS(=O)(=O)c2ccc(C)cc2)cc1	inactive	
Cc1cc(C)c2nc(Cl)c(Cl)nc2c1	inconclusive: 39.8 µM [inhibitor, single point]	
O=C(Cn1ncc2c3ccccc3n(Cc3cccc(Cl)c3)c2c1=O)N1CCCCC1	inconclusive: 39.8 µM [inhibitor, single point]	
CC(=O)Nc1cccc(-c2ccc3c(n2)c(=O)ncn3Cc2ccccc2)c1	inactive	
CS(=O)(=O)N1CC2(CCN(CC3CCCCC3)C2)Cc2ccccc21 (centres undefined)	inconclusive: 89.1 µM [inhibitor, partial curve]	
CC(C)c1ccc(-n2nnnc2SCc2nc3ccccc3o2)cc1	inactive	
CCN1CCC2(CCC1=O)CN(C(=O)CCCc1cccs1)CCN2C (centres undefined)	inconclusive: 11.2 µM [inhibitor, partial curve]	
COc1ccc(C(=O)NCc2nnc3ccc(-c4ccc(Cl)cc4)nn23)cc1F	inconclusive: 15.8 µM [inhibitor, partial curve, poor fit]	
CCCCc1nn2c(C)c(-c3ccc(OCC)cc3)nc2s1	inconclusive: 1.41 µM [inhibitor, partial curve, poor fit]	
Cc1ccccc1Cn1cnc(NC(=O)c2cc(S(=O)(=O)N3CCCC3)c(Cl)cc2Cl)n1	inactive	
Cc1ccc(-c2cc(C(=O)N3CCOCC3)c3ccccc3n2)c(C)c1	inconclusive: 28.2 µM [inhibitor, single point]	
O=C(CC1COCCN1C(=O)CCn1ccccc1=O)N1CCCCCC1 (centres undefined)	inconclusive: 22.4 µM [inhibitor, single point]	
CC(=O)Nc1c(C)noc1/C=C\c1ccc(C)c(S(=O)(=O)Nc2cc(C)ccc2C)c1	inactive	
C=CCn1c(-c2ccccc2)nc(=S)c2c1CCCC2	inconclusive: 39.8 µM [inhibitor, single point]	
CCc1nnsc1C(=O)N1CCc2nc(NC)nc(C(=O)N3CCCC3)c2C1	inconclusive: 10 µM [inhibitor, partial curve, poor fit]	
CCn1cc(C(=O)N2CCC3(CC2)CN(C2CCC2)CC3CO)cn1 (centres undefined)	active: 10 µM	
COc1ccc(C(=O)COC(=O)CCC(=O)c2cc(C)sc2C)c(OC)c1	inconclusive: 39.8 µM [inhibitor, partial curve, poor fit]	
